Measured values from the supplement of paper PMC11876631.
Changes are numbered by the printed parent chain. Names and notes keep the numbering of the source. ± gives the standard deviation of the averaged measurements. Laboratory Escherichia coli strains with one amino-acid change in an essential protein, pooled on minimal glucose agar with carbenicillin or gentamicin at twice the control MIC (plus kanamycin and chloramphenicol for the plasmids), 48 h. Fold change of barcode share against drug-free plates; higher = less susceptible. Active = above 20 in both replicates (the paper's putatively resistant). '<' = one read or none on drug, '>' = one read or none on a drug-free plate. Shares are relative, so most strains fall below 1 when a few take over. Listed are strains with at least 15 reads on both drug-free plates, and hits; most hits rest on fewer reference reads. Replicate rank correlation about 0.5. Edits are read from barcodes.

B1: prmC L28A (protein)
chain: MEYQHWLREAISQLQASESPRRDAEILAEHVTGRGRTFILAFGETQLTDEQCQQLDALLTRRRDGEPIAHLTGVREFWSLPLFVSPATLIPRPDTECLVEQALARLPEQPCRILDLGTGTGAIALALASERPDCEIIAVDRMPDAVSLAQRNAQHLAIKNIHILQSDWFSALAGQQFAMIVSNPPYIDEQDPHLQQGDVRFEPLTALVAADSGMADIVHIIEQSRNALVSGGFLLLEHGWQQGEAVRQAFILAGYHDVETCRDYGDNERVTLGRYYQ
B2: prmC L28Q (protein)
chain: B1 chain with A28Q
B3: prmC L28W (protein)
chain: B1 chain with A28W
B4: ppc L778P (protein)
chain: MNEQYSALRSNVSMLGKVLGETIKDALGEHILERVETIRKLSKSSRAGNDANRQELLTTLQNLSNDELLPVARAFSQFLNLANTAEQYHSISPKGEAASNPEVIARTLRKLKNQPELSEDTIKKAVESLSLELVLTAHPTEITRRTLIHKMVEVNACLKQLDNKDIADYEHNQLMRRLRQLIAQSWHTDEIRKLRPSPVDEAKWGFAVVENSLWQGVPNYLRELNEQLEENLGYKLPVEFVPVRFTSWMGGDRDGNPNVTADITRHVLLLSRWKATDLFLKDIQVLVSELSMVEATPELLALVGEEGAAEPYRYLMKNLRSRLMATQAWLEARLKGEELPKPEGLLTQNEELWEPLYACYQSLQACGMGIIANGDLLDTLRRVKCFGVPLVRIDIRQESTRHTEALGELTRYLGIGDYESWSEADKQAFLIRELNSKRPLLPRNWQPSAETREVLDTCQVIAEAPQGSIAAYVISMAKTPSDVLAVHLLLKEAGIGFAMPVAPLFETLDDLNNANDVMTQLLNIDWYRGLIQGKQMVMIGYSDSAKDAGVMAASWAQYQAQDALIKTCEKAGIELTLFHGRGGSIGRGGAPAHAALLSQPPGSLKGGLRVTEQGEMIRFKYGLPEITVSSLSLYTGAILEANLLPPPEPKESWRRIMDELSVISCDVYRGYVRENKDFVPYFRSATPEQELGKLPLGSRPAKRRPTGGVESLRAIPWIFAWTQNRLMLPAWLGAGTALQKVVEDGKQSELEAMCRDWPFFSTRLGMLEMVFAKADLWPAEYYDQRLVDKALWPLGKELRNLQEEDIKVVLAIANDSHLMADLPWIAESIQLRNIYTDPLNVLQAELLHRSRQAEKEGQEPDPRVEQALMVTIAGIAAGMRNTG
B5: ppc L158A (protein)
chain: B4 chain with L158A, P778L
B6: ppc L158Q (protein)
chain: B4 chain with L158Q, P778L
B7: ppc I718Q (protein)
chain: B4 chain with I718Q, P778L
B8: ppc L158W (protein)
chain: B4 chain with L158W, P778L

Molecular target: Escherichia coli (laboratory strain)
Assay: barcode share on antibiotic plates over drug-free plates; higher = less susceptible
Method: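 A pool of E. coli strains, each edited to carry one amino-acid change in an essential protein, was grown for 48 h on minimal glucose agar with or without antibiotic; strain barcodes were sequenced; mean of two replicates.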

[1] = antibiotic: carbenicillin, 2× MIC (3.1 µg/mL)
[2] = antibiotic: gentamicin, 2× MIC (MIC 0.45 µg/mL)

Protein	fold change of barcode share [1]	fold change of barcode share [2]
B1	0.3 ± 0.026	0.00387 ± 0.003
B2	0.345 ± 0.056	0.00333 ± 0.0018
B3	0.343 ± 0.095	0.00996 ± 0.0037
B4	3.41 ± 0.23	0.0678 ± 0.043
B5	2.47 ± 0.51	0.0215 ± 0.01
B6	0.616 ± 0.015	< 0.00436
B7	0.301 ± 0.088	< 0.0088
B8	1.85 ± 0.35	0.0307 ± 0.022
